# In all, about 350,000 compounds went through this assay and about 9,900 (2.8%) were called active. This list was built around the results that the source calls inconclusive (neither active nor inactive); the mix of calls is not that of the screen. Calls come from the whole dose curve; as a rule, active = well fitted activation curve with a large enough effect; inconclusive = small, poorly fitted or top-dose-only effect; inactive = no such curve, though single readings can be large or run the other way. Potencies of inconclusive entries are left out as doubtful fits.
# Test: A quantitative high throughput screen for small molecules that induce DNA re-replication in MCF 10a normal breast cells. For activity, positive = re-replication: % of control where 0% means no effect. Note: nearly all actives have a fitted effect of over 50% in size.
# Details: MCF 10A DNA re-replication, Hoechst nuclear intensity, 48 h; activity, positive = re-replication: at 46.1 µM (top of the series)
# Potency is the fitted concentration of half-maximal effect; tags give direction and shape of the fitted curve.
Structure (SMILES),Potency,"activity, positive = re-replication"
COc1cc2[nH]c(=S)n(Cc3ccc(C)cc3)c(=O)c2cc1OC,active: 13 µM,
Cc1nn(Cc2ccccc2Cl)c(C)c1C(=O)NCC(c1cccs1)N1CCOCC1 (stereo not given),"inconclusive [activator, partial curve, poor fit]",
O=C(CNC(=S)N(Cc1ccccc1F)C1CCCCC1)NCC1CCCO1 (stereo not given),,inactive: 1.23%
CC(=O)Nc1ccc(NC(=O)CSc2ccc(-c3ccc(-n4ccnc4)cc3)nn2)cc1,"inconclusive [activator, full curve, poor fit]",
CC(C)Oc1ccc(C2CC(=O)N(C)C2=O)cc1 (stereo not given),,inactive: -2.76%
C[C@H](CO)N1C[C@H](C)[C@@H](CN(C)S(=O)(=O)c2ccc(F)cc2)Oc2ccc(NC(=O)C3CCCCC3)cc2C1=O,,inactive: 1.38%
Cc1ccccc1Nc1nnc(SCC(=O)c2c(N)n(C3CC3)c(=O)[nH]c2=O)s1,,inactive: 10.6%
COc1ccc(C=C(c2nc3ccccc3s2)c2nc3ccccc3s2)cc1O,active: 13 µM,
CCOC(=O)c1c(NC(=O)CC2Sc3ccc(C(F)(F)F)cc3NC2=O)sc(C)c1C (stereo not given),"inconclusive [activator, partial curve, poor fit]",
COc1ccccc1-c1nc(SCC(=O)NCc2ccco2)c2c(=O)n(C)c(=O)n(C)c2n1,"inconclusive [activator, full curve, poor fit]",
C[C@@H]1C=CC(=O)O[C@@H]1c1ccc(Cl)cc1,"inconclusive [activator, full curve, poor fit]",
CC(NCC(=O)Nc1cc(S(=O)(=O)N2CCOCC2)ccc1Cl)c1ccc(Cl)cc1Cl (stereo not given),"inconclusive [activator, partial curve, poor fit]",
Cc1cccc(C)c1-c1ccc(CN2C(CC(C)C)C(=O)N(Cc3cn(CCO)nn3)CCS2(=O)=O)cc1 (stereo not given),"inconclusive [activator, single point]",
CC(C)c1ccc(NC(=O)C(c2ccccc2)N2CC(=O)Nc3ccccc32)cc1 (stereo not given),"inconclusive [activator, single point]",
CC(C)Cn1nc(NC(=O)c2ccco2)c2cc3ccccc3nc21,"inconclusive [activator, partial curve, poor fit]",
CCc1cccc(C)c1NC(=O)CSc1nc2ccccc2n1CC(=O)N(C)C,"inconclusive [activator, single point]",
CC1=CC(C)C2C(=O)N(O)C(=O)C2C1 (stereo not given),"inconclusive [activator, single point]",
COC(=O)c1ccc2nc(Nc3nc4ccc(F)cc4s3)sc2c1,"inconclusive [activator, partial curve, poor fit]",
Cc1ccnc(N2CCCC(C(=O)Nc3ccc(C)c(C)c3)C2)n1 (stereo not given),active: 16.4 µM,
Cc1cc(C)c(C#N)c(SCC(=O)c2ccccc2)n1,"inconclusive [activator, partial curve, poor fit]",
CCCCOC(=O)Nc1nc(C)c(C(=O)OCC)s1,,inactive: -8.16%
COc1cc2c(cc1NC(=O)CN(C)Cc1nc3ccccc3c(=O)[nH]1)oc1ccccc12,,inactive: 11.1%

Structure (SMILES),Potency,"activity, positive = re-replication"
CCOc1ccc(NC(=O)C2CCCN2S(=O)(=O)c2ccc(OCC)cc2)cc1 (stereo not given),"inconclusive [activator, partial curve, poor fit]",
O=C(Nc1ccc(N2CCN(C(=O)c3cccs3)CC2)cc1)c1ccccc1Cl,"inconclusive [activator, single point]",
Clc1cccc(CN2C3=NCCCN3c3ccccc32)c1,"inconclusive [activator, single point]",
Cc1ccccc1NC(=O)N1CCCC(c2nc(-c3ccc(C(C)C)cc3)no2)C1 (stereo not given),active: 14.6 µM,
O=C(CN1C(=O)C(=O)N(CCC2=CCCCC2)C1=O)c1c[nH]c2ccccc12,"inconclusive [activator, single point]",
O=c1oc(C2(O)CCCCC2)cc2ccccc12,,inactive: 3.43%
Cc1cccc(-n2cnc(C(=O)NC3CCCCCC3)c2)n1,"inconclusive [activator, single point]",
CC(C)(C#N)NC(=O)C1CCCN1S(=O)(=O)c1ccc2ccccc2c1 (stereo not given),"inconclusive [activator, single point]",
C/C(=N\Nc1ccc([N+](=O)[O-])cc1)c1cccc(N)c1,"inconclusive [activator, partial curve, poor fit]",
Cc1onc(-c2ccccc2)c1C(=O)Nc1nc(-c2ccccc2)cs1,"inconclusive [activator, partial curve]",
CC1CC(C)(C)NC(=S)N1CC(=O)N(C)Cc1ccccc1 (stereo not given),,inactive: -4.98%
COc1ccc(-c2ccc3c(c2)S(=O)(=O)c2cccc(C(=O)NC4CC4)c2C3=O)cc1OC,"inconclusive [activator, partial curve, poor fit]",
Cc1cc(C)c2c(N)c(-c3nc4ccccc4[nH]3)sc2n1,"inconclusive [activator, partial curve, poor fit]",
COc1ccc(CNC[C@@H](CCCCN(C)Cc2ccc(OC)cc2)N2C[C@H](c3ccccc3)N(CCc3ccc(Cl)c(Cl)c3)C(=O)C2=O)cc1,"inconclusive [activator, single point]",
CCOC(=O)c1c(NC(=O)c2ccc(Br)o2)sc2c1CCCC2,"inconclusive [activator, single point]",
COc1ccc(C(=O)/C=C/c2ccc(OC)c(CN3CCOCC3)c2)cc1,"inconclusive [activator, single point]",
O=C1C(Nc2ccccc2)=C(N2CCCCC2)C(=O)c2ccccc21,"inconclusive [activator, single point]",
O=Cc1cn(-c2ccccc2)nc1-c1ccncc1,,inactive: 9.53%
CC(=O)c1cccc(Nc2nc(-c3cccc([N+](=O)[O-])c3)cs2)c1,"inconclusive [activator, partial curve, poor fit]",
CC(Oc1ccccc1Cl)C(=O)Nc1ccc(S(=O)(=O)Nc2nccs2)cc1 (stereo not given),"inconclusive [activator, single point]",
Cc1cccc(/C=C\c2nc3ccccc3c(=O)[nH]2)c1,active: 5.8 µM,
Cc1cccc(N2CCN(C(=O)CCCn3c(=O)c4cccn4c4cccnc43)CC2)c1C,"inconclusive [activator, partial curve, poor fit]",

Structure (SMILES),Potency,"activity, positive = re-replication"
COC(=O)c1cn(CC(=O)Nc2ccc(F)cc2)c2ccccc12,"inconclusive [activator, partial curve, poor fit]",
CCC1(C)Cc2ccccc2-c2nc(SC)[nH]c(=O)c21 (stereo not given),"inconclusive [activator, single point]",
Cc1cc(NC(=O)CSc2nc3c(C)cccc3cc2C#N)no1,"inconclusive [activator, partial curve]",
CCN(CC)CCN(C(=O)/C=C/c1cccs1)c1nc2ccc(C)cc2s1,,inactive: -0.54%
CCC(=O)c1cc2c(C)cc(=O)oc2c(C)c1O,"inconclusive [activator, single point]",
C=CC(=O)Nc1sc2c(c1C(N)=O)CCCC2,active: 20.6 µM,
Cc1ccc(C(=O)Nc2nnc(-c3ccco3)o2)cc1C,"inconclusive [activator, partial curve, poor fit]",
CC1(C)OC(C)(C)/C(=C/Nc2ccc(O)cc2)C1=O,"inconclusive [activator, partial curve, poor fit]",
Cn1c(=O)[nH]c(=O)c2c1nc(N1CCCCC1)n2CCOc1ccccc1,"inconclusive [activator, single point]",
CC1(NC(=O)CC(c2ccccc2)(c2ccccc2)c2ccccc2)CCN(CCCc2ccccc2)C1=O (stereo not given),"inconclusive [activator, partial curve]",
CCOC(=O)c1sc2ncnc(OC)c2c1C,"inconclusive [activator, single point]",
CN1CCc2c(sc3nc(SCC(N)=O)n(-c4ccc(Cl)cc4)c(=O)c23)C1,active: 16.4 µM,
C/C(=N\Nc1ccc(Cl)c(C(=O)O)c1)c1cccc([N+](=O)[O-])c1,,inactive: 1.31%
COc1cc(NC(=O)OCc2ccccc2)c2ncccc2c1,"inconclusive [activator, single point]",
COc1ccc(NC(=O)N(C)C[C@H]2Oc3ccc(NC(=O)c4ccncc4)cc3C(=O)N([C@H](C)CO)C[C@@H]2C)cc1,"inconclusive [activator, single point]",
COc1cc(NC(=O)CSc2ncccc2C(=O)OC(C)C)cc(OC)c1,"inconclusive [activator, single point]",
Cc1ccc2nc(CSc3nc(C)nc4c3oc3ccccc34)[nH]c2c1,"inconclusive [activator, single point]",
CCCCCCSc1ccc([C@H]2N[C@@](Cc3ccccc3)(C(=O)OC)[C@H]3C(=O)N(C)C(=O)[C@@H]23)cc1,,inactive: 5.23%
O=C(N/N=C/c1cc(Br)cs1)c1ccc2c(c1)OCCO2,"inconclusive [activator, single point]",
Cn1c(SCc2nc(-c3cccs3)no2)nnc1C1CCCCC1,"inconclusive [activator, partial curve, poor fit]",
Cc1ccc(C2=NN(S(C)(=O)=O)C(c3ccc4c(c3)OCO4)C2)cc1 (stereo not given),,inactive: 10.8%
